Source: a collection of fitness landscapes (doi:10.1038/s41467-024-54723-y)
The full ranking holds about 18,000 sequences; the median of “TetR repression strength (sort-seq, GFP reporter)” is about 0.23, and the highest 2% start at about 0.68. The list shows a part of the results.

Each sequence was assayed against TetR (class B, Tn10) (UniProt P04483) (assay: TetR repression strength (sort-seq, GFP reporter) (relative to tetO2 = 1); higher = stronger repression). Details: E. coli.
Method in brief: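 In LB with 50 µg/mL chloramphenicol, E. coli SIG10-MAX holding a low-copy library with eight randomized operator positions between a constitutive promoter and sfGFP, plus constitutive TetR, grew for 5 h at 37 °C. FACS then sorted 10^6 cells into 13 fluorescence bins for Illumina sequencing of each bin. Repression strength equals the top bin index plus one less the read-weighted mean bin, normalized to the unaltered operator. Values from three independent transformations were averaged when reads were ≥30 in every replicate and the CV was ≤0.5.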

Sequence of UniProt P04483 (P04483 whole entry): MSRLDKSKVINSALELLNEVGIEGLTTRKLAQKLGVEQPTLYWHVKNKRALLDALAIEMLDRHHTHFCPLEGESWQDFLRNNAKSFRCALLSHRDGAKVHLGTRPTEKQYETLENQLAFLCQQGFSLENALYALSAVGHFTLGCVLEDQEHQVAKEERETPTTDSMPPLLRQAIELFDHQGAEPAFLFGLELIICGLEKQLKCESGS

First: TCCCTGCGAGTTATTGAGA
Second: TCCCATAAAGTGGTAGAGA
The TetR repression strength of the first is lower: 0.209 for the first, 0.304 for the second.

Going from TCCCGCTTAGTTTGCGAGA to TCCCTGCTAGTGGGTGAGA, the TetR repression strength rises from 0.161 to 0.329.

Going from TCCCCGGCAGTTAGTGAGA to TCCCGATTAGTCCGAGAGA, the TetR repression strength falls from 0.257 to 0.0648.

First: TCCCAGAAAGTTATTGAGA
Second: TCCCCGCGAGTCGAGGAGA
The TetR repression strength of the first is higher: 0.197 for the first, 0.157 for the second.

First: TCCCTCATAGTGCGCGAGA
Second: TCCCTATCAGTGCCCGAGA
The TetR repression strength of the first is lower: 0.162 for the first, 0.629 for the second.

Compared with TCCCCAATAGTGCTCGAGA, TCCCGTGTAGTCAACGAGA is higher in TetR repression strength: 0.104 for the first, 0.231 for the second.

Compared with TCCCCTAGAGTGCAAGAGA, TCCCAATGAGTTGGTGAGA is lower in TetR repression strength: 0.552 for the first, 0.213 for the second.

Going from TCCCAGCGAGTGCAGGAGA to TCCCGTAGAGTATGAGAGA, the TetR repression strength rises from 0.18 to 0.547.

Going from TCCCGCTCAGTCGATGAGA to TCCCGTTTAGTTTCGGAGA, the TetR repression strength rises from 0.143 to 0.446.

Going from TCCCCGGGAGTGCGAGAGA to TCCCGTTAAGTCAGTGAGA, the TetR repression strength rises from 0.322 to 0.481.

Compared with TCCCCGGTAGTCAGAGAGA, TCCCGGGCAGTGTCCGAGA is lower in TetR repression strength: 0.207 for the first, 0.106 for the second.

Going from TCCCTCATAGTGTGCGAGA to TCCCGGATAGTTTCCGAGA, the TetR repression strength falls from 0.151 to 0.149.

Compared with TCCCATGAAGTTCAAGAGA, TCCCGTGGAGTCGGCGAGA is lower in TetR repression strength: 0.274 for the first, 0.202 for the second.

First: TCCCGAACAGTCGGAGAGA
Second: TCCCCAACAGTACCTGAGA
The TetR repression strength of the first is lower: 0.119 for the first, 0.428 for the second.

Compared with TCCCATTCAGTGGAGGAGA, TCCCTCGTAGTAGGTGAGA is lower in TetR repression strength: 0.611 for the first, 0.0299 for the second.

Going from TCCCTGATAGTGGCTGAGA to TCCCTTCTAGTAGAGGAGA, the TetR repression strength rises from 0.256 to 0.289.

First: TCCCCTTCAGTGGCCGAGA
Second: TCCCGTAGAGTGACCGAGA
The TetR repression strength of the first is higher: 0.221 for the first, 0.12 for the second.

Compared with TCCCGCGGAGTGAGGGAGA, TCCCCTCGAGTCGTGGAGA is lower in TetR repression strength: 0.196 for the first, 0.145 for the second.

Going from TCCCGCATAGTCTTTGAGA to TCCCTTGGAGTGTATGAGA, the TetR repression strength falls from 0.393 to 0.208.

Compared with TCCCTGGCAGTCTCGGAGA, TCCCCACGAGTGCCAGAGA is higher in TetR repression strength: 0.19 for the first, 0.256 for the second.

Going from TCCCCTAAAGTCGTAGAGA to TCCCGAGAAGTAAGGGAGA, the TetR repression strength falls from 0.36 to 0.16.

Going from TCCCTCTCAGTCGGTGAGA to TCCCGAAGAGTTGGGGAGA, the TetR repression strength rises from 0.393 to 0.507.

Compared with TCCCGCGAAGTTTAGGAGA, TCCCCAATAGTCGAGGAGA is lower in TetR repression strength: 0.221 for the first, 0 for the second.

Going from TCCCATTGAGTAGGTGAGA to TCCCTCGAAGTGTGAGAGA, the TetR repression strength rises from 0.186 to 0.274.

First: TCCCAAAGAGTGTTGGAGA
Second: TCCCTCCTAGTTGTGGAGA
The TetR repression strength of the first is higher: 0.305 for the first, 0.3 for the second.

Going from TCCCTTGAAGTATAAGAGA to TCCCGACTAGTCCGCGAGA, the TetR repression strength rises from 0.264 to 0.311.

Compared with TCCCAAGTAGTGTCAGAGA, TCCCTCGCAGTGAGCGAGA is lower in TetR repression strength: 0.635 for the first, 0.22 for the second.

Going from TCCCTGTAAGTGGAAGAGA to TCCCAATGAGTGAGCGAGA, the TetR repression strength rises from 0.0201 to 0.306.

Going from TCCCAACGAGTTTAGGAGA to TCCCGAGTAGTCGCCGAGA, the TetR repression strength falls from 0.245 to 0.0944.

First: TCCCCAGCAGTAGTTGAGA
Second: TCCCATAGAGTTTATGAGA
The TetR repression strength of the first is higher: 0.207 for the first, 0.178 for the second.

Going from TCCCACGCAGTCAAAGAGA to TCCCAACTAGTTTTCGAGA, the TetR repression strength rises from 0.287 to 0.378.

First: TCCCGCGTAGTCTCAGAGA
Second: TCCCGATAAGTAGACGAGA
The TetR repression strength of the first is higher: 0.326 for the first, 0.275 for the second.

Going from TCCCTAATAGTGCGAGAGA to TCCCACGTAGTAGTAGAGA, the TetR repression strength falls from 0.309 to 0.196.

First: TCCCGGGGAGTCGCAGAGA
Second: TCCCGCTCAGTTTAGGAGA
The TetR repression strength of the first is higher: 0.253 for the first, 0.205 for the second.

Going from TCCCACGAAGTTTGCGAGA to TCCCTGATAGTTGGCGAGA, the TetR repression strength rises from 0.265 to 0.317.

First: TCCCAGGTAGTCTGAGAGA
Second: TCCCTGGTAGTGGCGGAGA
The TetR repression strength of the first is higher: 0.196 for the first, 0.0597 for the second.

Compared with TCCCACCAAGTGTCGGAGA, TCCCCGGTAGTCAGGGAGA is higher in TetR repression strength: 0.0251 for the first, 0.501 for the second.

Compared with TCCCCGGAAGTGCGCGAGA, TCCCGCCTAGTGCTTGAGA is lower in TetR repression strength: 0.362 for the first, 0.24 for the second.

Compared with TCCCGCACAGTGGAAGAGA, TCCCATCGAGTGTCTGAGA is lower in TetR repression strength: 0.259 for the first, 0.193 for the second.

Going from TCCCCATGAGTGCTAGAGA to TCCCAAGCAGTGCCCGAGA, the TetR repression strength falls from 0.29 to 0.183.

First: TCCCGGGCAGTAGATGAGA
Second: TCCCGGATAGTCAGTGAGA
The TetR repression strength of the first is lower: 0.0336 for the first, 0.203 for the second.

Compared with TCCCGAAAAGTTATGGAGA, TCCCACAGAGTAGTGGAGA is lower in TetR repression strength: 0.201 for the first, 0.166 for the second.

Going from TCCCAGGGAGTGGGCGAGA to TCCCCGTTAGTGTAGGAGA, the TetR repression strength falls from 0.312 to 0.179.

Going from TCCCGACTAGTGAAGGAGA to TCCCAGATAGTGCATGAGA, the TetR repression strength falls from 0.637 to 0.138.

First: TCCCAACGAGTGCCTGAGA
Second: TCCCTGCAAGTTCCTGAGA
The TetR repression strength of the first is lower: 0.0837 for the first, 0.272 for the second.

Going from TCCCGCTTAGTTGATGAGA to TCCCAACTAGTGCACGAGA, the TetR repression strength rises from 0.233 to 0.328.

Going from TCCCCCCTAGTGCACGAGA to TCCCCATAAGTCAGGGAGA, the TetR repression strength falls from 0.217 to 0.0546.

Compared with TCCCGCCGAGTTCATGAGA, TCCCTGGCAGTATACGAGA is lower in TetR repression strength: 0.28 for the first, 0.077 for the second.

First: TCCCAGTGAGTACCCGAGA
Second: TCCCTCGCAGTCATCGAGA
The TetR repression strength of the first is lower: 0.261 for the first, 0.621 for the second.

First: TCCCGTGGAGTGGGTGAGA
Second: TCCCGAAAAGTGTGCGAGA
The TetR repression strength of the first is higher: 0.181 for the first, 0.176 for the second.

First: TCCCGGGTAGTCGGAGAGA
Second: TCCCCATTAGTAGGGGAGA
The TetR repression strength of the first is lower: 0.313 for the first, 0.455 for the second.

First: TCCCCGAAAGTAGCCGAGA
Second: TCCCCCACAGTGACGGAGA
The TetR repression strength of the first is lower: 0.169 for the first, 0.639 for the second.

First: TCCCTGGAAGTCAGGGAGA
Second: TCCCAGCTAGTTTGGGAGA
The TetR repression strength of the first is lower: 0.236 for the first, 0.273 for the second.

Going from TCCCGACGAGTTGGTGAGA to TCCCTCGAAGTGCCTGAGA, the TetR repression strength rises from 0.199 to 0.316.

Compared with TCCCTGACAGTGGTCGAGA, TCCCTGCCAGTGATTGAGA is higher in TetR repression strength: 0.148 for the first, 0.574 for the second.

First: TCCCTCCTAGTGCACGAGA
Second: TCCCTTAGAGTGCCAGAGA
The TetR repression strength of the first is higher: 0.334 for the first, 0.207 for the second.

Going from TCCCGTTCAGTAGAAGAGA to TCCCAGCAAGTGGTAGAGA, the TetR repression strength rises from 0.141 to 0.43.

Compared with TCCCGTTCAGTGTGGGAGA, TCCCCTCGAGTCGGTGAGA is higher in TetR repression strength: 0.0348 for the first, 0.263 for the second.

Compared with TCCCGGTCAGTAACGGAGA, TCCCGAGGAGTACGAGAGA is higher in TetR repression strength: 0.173 for the first, 0.222 for the second.

Going from TCCCAGACAGTTCCCGAGA to TCCCCGTAAGTGTTGGAGA, the TetR repression strength falls from 0.324 to 0.176.

First: TCCCTGTGAGTACCAGAGA
Second: TCCCCATGAGTACGGGAGA
The TetR repression strength of the first is higher: 0.292 for the first, 0.236 for the second.

Going from TCCCTACCAGTATGGGAGA to TCCCGGCTAGTAGGTGAGA, the TetR repression strength falls from 0.287 to 0.259.

Compared with TCCCGGGGAGTGGATGAGA, TCCCGTCGAGTCGTTGAGA is lower in TetR repression strength: 0.154 for the first, 0.134 for the second.

Compared with TCCCTATGAGTAACCGAGA, TCCCTTAAAGTACTCGAGA is higher in TetR repression strength: 0.179 for the first, 1.16 for the second.

Going from TCCCTTAAAGTCGGCGAGA to TCCCAATTAGTACTGGAGA, the TetR repression strength falls from 0.202 to 0.0503.
